US10584135B2, “Substituted 3,6-diazabicyclo[3.2.0]heptanes” (INDIVIOR UK LIMITED, priority 2015, dated 2020)

Target: human dopamine type 3 receptor (hD3) (Homo sapiens (Human), UniProt P35462)
Assay: biochemical
Conditions: not given

UniProt P35462, sequence (P35462 whole entry): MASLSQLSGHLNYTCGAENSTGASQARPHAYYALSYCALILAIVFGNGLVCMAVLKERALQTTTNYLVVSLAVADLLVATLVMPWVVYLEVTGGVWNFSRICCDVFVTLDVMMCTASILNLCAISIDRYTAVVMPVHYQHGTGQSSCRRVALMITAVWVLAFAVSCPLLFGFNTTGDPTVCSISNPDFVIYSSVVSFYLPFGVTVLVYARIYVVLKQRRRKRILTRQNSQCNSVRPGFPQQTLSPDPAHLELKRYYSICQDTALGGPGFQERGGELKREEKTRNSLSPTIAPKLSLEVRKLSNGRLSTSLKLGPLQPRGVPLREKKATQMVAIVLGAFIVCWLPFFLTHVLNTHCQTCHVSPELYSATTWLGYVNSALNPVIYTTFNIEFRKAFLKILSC

SMILES	Ki [nM]
Cn1c(SCCCN2C[C@@H]3CCN(c4ccc(C(F)(F)F)cc4)[C@@H]3C2)nnc1C1CCOCC1 (single isomer, unassigned) [Example 34, 3-({3-[(3aS,6aS or 3aR,6aR)-1-[4-(trifluoromethyl)phenyl]-octahydropyrrolo[2,3-c]pyrrol-5-yl]propyl}sulfanyl)-4-methyl-5-(oxan-4-yl)-4H-1,2,4-triazole]	3.09
Cn1c(SCCCN2C[C@@H]3CCN(c4ccccc4)[C@@H]3C2)nnc1C1CCOCC1 (single isomer, unassigned) [Example 39, 3-({3-[(3aS,6aS or 3aR,6aR)-1-phenyl-octahydropyrrolo[2,3-c]pyrrol-5-yl]propyl}sulfanyl)-4-methyl-5-(oxan-4-yl)-4H-1,2,4-triazole]	6.92
Cn1c(SCCCN2C[C@H]3CCN(c4ccc(C(F)(F)F)cc4)[C@H]3C2)nnc1C1CCCCC1 (single isomer, unassigned) [Example 60, 3-({3-[(3aR,6aR or 3aS,6aS)-1-[4-(trifluoromethyl)phenyl]-octahydropyrrolo[3,4-b]pyrrol-5-yl]propyl}sulfanyl)-5-cyclohexyl-4-methyl-4H-1,2,4-triazole]	0.407
Cn1c(SCCCN2C[C@H]3CCN(c4ccccc4)[C@H]3C2)nnc1C1CCOCC1 (single isomer, unassigned) [Example 40, 3-({3-[(3aR,6aR or 3aS,6aS)-1-phenyl-octahydropyrrolo[2,3-c]pyrrol-5-yl]propyl}sulfanyl)-4-methyl-5-(oxan-4-yl)-4H-1,2,4-triazole]	26.9
Cn1c(SCCCN2C[C@@H]3CCN(c4ccc(C(F)(F)F)cc4)[C@@H]3C2)nnc1C1CCCCC1 (single isomer, unassigned) [Example 59, 3-({3-[(3aS,6aS or 3aR,6aR)-1-[4-(trifluoromethyl)phenyl]-octahydropyrrolo[3,4-b]pyrrol-5-yl]propyl}sulfanyl)-5-cyclohexyl-4-methyl-4H-1,2,4-triazole]	0.398
Cn1c(SCCCN2C[C@H]3CCN(c4ccc(C(F)(F)F)cc4)[C@H]3C2)nnc1C1CCOCC1 (single isomer, unassigned) [Example 35, 3-({3-[(3aR,6aR or 3aS,6aS)-1-[4-(trifluoromethyl)phenyl]-octahydropyrrolo[2,3-c]pyrrol-5-yl]propyl}sulfanyl)-4-methyl-5-(oxan-4-yl)-4H-1,2,4-triazole]	5.25
Cn1c(SCCCN2C[C@H]3CCN(c4cccnc4)[C@H]3C2)nnc1C1CCCCC1 (single isomer, unassigned) [Example 70, 3-[(3aR,6aR or 3aS,6aS)-5-{3-[(5-cyclohexyl-4-methyl-4H-1,2,4-triazol-3-yl)sulfanyl]propyl}-octahydropyrrolo[2,3-c]pyrrol-1-yl]pyridine]	20.9
Cn1c(SCCCN2C[C@@H]3CCN(c4cccnc4)[C@@H]3C2)nnc1C1CCCCC1 (single isomer, unassigned) [Example 69, 3-[(3aS,6aS or 3aR,6aR)-5-{3-[(5-cyclohexyl-4-methyl-4H-1,2,4-triazol-3-yl)sulfanyl]propyl}-octahydropyrrolo[2,3-c]pyrrol-1-yl]pyridine]	11.7

More lines, now with the values ahead:

Ki [nM]	SMILES
20.4	Cn1c(CCCCN2C[C@@H]3CCN(c4ccc(C(F)(F)F)cc4)[C@@H]3C2)nnc1C1CCOCC1 (single isomer, unassigned) [Example 216, 3-{4-[(3aS,6aS or 3aR,6aR)-1-[4-(trifluoromethyl)phenyl]-octahydropyrrolo[3,4-b]pyrrol-5-yl]butyl}-4-methyl-5-(oxan-4-yl)-4H-1,2,4-triazole Dihydrochloride]
3.72	Cc1ncoc1-c1nnc(SCCCN2C[C@H]3CC[C@H](c4ccc(C(F)(F)F)cc4)[C@H]3C2)n1C (single isomer, unassigned) [Example 226, 4-methyl-3-(4-methyl-1,3-oxazol-5-yl)-5-({3-[(4S or 4R)-4-[4-(trifluoromethyl)phenyl]-octahydrocyclopenta[c]pyrrol-2-yl]propyl}sulfanyl)-4H-1,2,4-triazole Hydrochloride]
35.5	Cc1ncoc1-c1nnc(SCCCN2C[C@H]3CC[C@@H](c4ccc(C(F)(F)F)cc4)[C@H]3C2)n1C (single isomer, unassigned) [Example 227, 4-methyl-3-(4-methyl-1,3-oxazol-5-yl)-5-({3-[(4R or 4S)-4-[4-(trifluoromethyl)phenyl]-octahydrocyclopenta[c]pyrrol-2-yl]propyl}sulfanyl)-4H-1,2,4-triazole Hydrochloride]

Target: human dopamine receptor type 2, long variant (hD2L) (Homo sapiens (Human), UniProt P14416)
UniProt P14416, sequence (P14416 whole entry): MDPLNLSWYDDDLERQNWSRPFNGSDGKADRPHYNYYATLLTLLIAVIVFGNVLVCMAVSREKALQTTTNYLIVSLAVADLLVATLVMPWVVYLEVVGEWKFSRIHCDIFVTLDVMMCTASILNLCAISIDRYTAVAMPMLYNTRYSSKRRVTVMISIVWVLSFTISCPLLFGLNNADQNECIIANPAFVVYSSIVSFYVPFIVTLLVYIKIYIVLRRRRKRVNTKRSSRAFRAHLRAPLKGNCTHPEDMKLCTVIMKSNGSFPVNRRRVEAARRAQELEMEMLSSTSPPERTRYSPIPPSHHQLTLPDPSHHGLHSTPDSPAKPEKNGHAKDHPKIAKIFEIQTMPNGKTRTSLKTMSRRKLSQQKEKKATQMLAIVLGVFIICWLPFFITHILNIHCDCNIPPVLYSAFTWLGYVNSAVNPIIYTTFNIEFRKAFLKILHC
Assay: not given
Conditions: functional pKi, CHO-Gα16-hD2L cells, FLIPR Ca2+, dopamine EC80 challenge

D2 fpKi	SMILES
6.16	Cl.Cl.Cn1c(SCCCN2C[C@H]3CCN(c4ccc(C(F)(F)F)cc4)[C@H]3C2)nnc1C1CCC(O)CC1 (stereo in doubt) [Example 221, 4-{4-methyl-5-[(3-{1-[4-(trifluoromethyl)phenyl]-octahydropyrrolo[2,3-c]pyrrol-5-yl}propyl)sulfanyl]-4H-1,2,4-triazol-3-yl}cyclohexan-1-ol Dihydrochloride]

Structures can show the parent of a compound that is named as a salt.
